These results are taken from the supplement of paper PMC10126150.

For the data set, the system named is ATP. Nature of the data set: switch fluorescence ratio, 500 uM ATP over buffer (Cy3 cluster intensity, sum of 5 cycles each) (fold (ratio)); higher = stronger signal-on switching upon ATP binding; sequences stand for … in TCGTCGGCAGCGTCAGATGTGTATAAGAGACAGTTTTTTTTTTTTTTTTTTTTTTTTT…TC. The note with it: aptamer strand: ATP DNA aptamer (quencher-CACCTGGGGGAGTATTGCGGAGGAAGG + anchor), 100 nM annealed; ATP concentration: 500 uM; one replicate. Put shortly:
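Exposure to 500 uM ATP lasted 15 min at 22 °C before imaging, and a selection-buffer image was taken beforehand, for Cy3-labelled switching-strand clusters on a modified Illumina MiSeq flow-cell annealed to 100 nM quencher-labelled ATP aptamer. Five buffer/ATP cycles were run with NaOH stripping and re-annealing between them. The fluorescence ratio per cluster is summed target-cycle over summed buffer-cycle Cy3 intensity, averaged per switch-domain sequence. Clusters outside 100-1000 RFU were excluded.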

Values marked as one replicate rest on one cluster of the flow cell; about a third of the high ones do not repeat.

As to ACAGGTCTG, the switch fluorescence ratio stood at 0.982.

Consider ATCTCATCGT, for which the switch fluorescence ratio is 0.961.

For CAGACAATAT, the switch fluorescence ratio was 1.45.

GATGAAGTTC: the switch fluorescence ratio turned out to be 0.998.

As for TCTTTTAGTG, the switch fluorescence ratio amounted to 0.986.

Turning to CCCATCTCAC, the switch fluorescence ratio was found to be 1.05.

Take GGCACAATCA: the switch fluorescence ratio turned out to be 0.972.

TTATTAAGT: the switch fluorescence ratio amounted to 1.02.

Turning to AAGATGCGAT, the switch fluorescence ratio came out at 1.02.

For the sequence TCTGTTACGA, the switch fluorescence ratio was determined as 1.04.

As to GCATGTTTAA, the switch fluorescence ratio was found to be 1.01.

On to GAGAACTTGC, for which the switch fluorescence ratio was 1.04.

Regarding TTGCCATGCA, the switch fluorescence ratio is 0.98.

ACAGGCAGCT: the switch fluorescence ratio was 0.993.

For the sequence CACTCGGGGG, the switch fluorescence ratio was 1.03.

With TAAACTTCT, the switch fluorescence ratio worked out at 1.02.

On to ATTCGAATTA, for which the switch fluorescence ratio is 0.964.

In the case of TCAAACACTC, the switch fluorescence ratio was 1.05.

For GCCGTAATAC, the switch fluorescence ratio is 2.22.

Turning to AAGGCACGTT, the switch fluorescence ratio stood at 1.01.

As for TCGGCTAGGA, the switch fluorescence ratio is 0.986.

Regarding ATGGTTGCCA, the switch fluorescence ratio came out at 0.976.

CGCTGTCCT: the switch fluorescence ratio was found to be 1.69.

CTGCGTAGAC: the switch fluorescence ratio is 1.67.

Take AGGACGGTGG: the switch fluorescence ratio amounted to 1.

For the sequence ATCACTTCGC, the switch fluorescence ratio came out at 1.11.

As for CGGGGCGCAG, the switch fluorescence ratio stood at 0.957.

For CCAGGCCGCG, the switch fluorescence ratio worked out at 1.03.

AATAAGCACC: the switch fluorescence ratio worked out at 1.27.

Take AACGAGGGGC: the switch fluorescence ratio stood at 0.958.

On to GGTAAGTAGT, for which the switch fluorescence ratio was found to be 1.

Consider GTATTGAGCG, for which the switch fluorescence ratio is 1.01.

Turning to TTAAGTTCGT, the switch fluorescence ratio turned out to be 0.963.

In the case of GCAACGGCTG, the switch fluorescence ratio came to 1.01.

Turning to TTAGGACGTG, the switch fluorescence ratio was found to be 1.05.

GGGGGTCCAA: the switch fluorescence ratio is 1.01.

CAGCCCGTTC: the switch fluorescence ratio was determined as 1.09.

As to ATGTTACTGT, the switch fluorescence ratio was 1.02.

On to ATCAAGCCGA, for which the switch fluorescence ratio was determined as 0.951.

On to AATCTTCGCG, for which the switch fluorescence ratio was 1.01.

For TTTTCTCCAT, the switch fluorescence ratio worked out at 1.02.

Take ACCCGTGCGG: the switch fluorescence ratio is 0.964.

Take TCGGCACGGG: the switch fluorescence ratio came to 0.975.

CATGATGAAG: the switch fluorescence ratio amounted to 0.972.

Regarding AGTGTGCCTT, the switch fluorescence ratio came to 0.96.

As for TGAATATAAA, the switch fluorescence ratio is 0.95.

For the sequence ACTAAGGTAT, the switch fluorescence ratio amounted to 1.05.

On to GTTGGTCCTG, for which the switch fluorescence ratio came out at 1.03.

Take AAAGATTAA: the switch fluorescence ratio turned out to be 1.04.

For the sequence ATAGCTTCCA, the switch fluorescence ratio turned out to be 1.12.

As to GTTCGTGGCC, the switch fluorescence ratio came to 1.02.

Regarding AGTAAAGAGA, the switch fluorescence ratio came out at 1.05.

TAACGGCTA: the switch fluorescence ratio was determined as 1.05.

On to AACCATGCGA, for which the switch fluorescence ratio came out at 1.01.

As for TAGTAATAGC, the switch fluorescence ratio was 1.09.

Turning to CAGAATTGCG, the switch fluorescence ratio was found to be 0.976.

As for CATGCAGGGA, the switch fluorescence ratio was determined as 0.972.

On to GCTTATGATC, for which the switch fluorescence ratio came to 0.995.

For the sequence TGTTCAAAAT, the switch fluorescence ratio amounted to 1.01.

With TTCCAAACGT, the switch fluorescence ratio came out at 1.05.

With TAGGAGCTGG, the switch fluorescence ratio was found to be 1.02.

With TAACTGGTGT, the switch fluorescence ratio came to 1.02.

GTTGACCATA: the switch fluorescence ratio was determined as 1.04.

Take ACCGGGATAG: the switch fluorescence ratio stood at 1.31.

GAGTGGGGTC: the switch fluorescence ratio stood at 0.983.

For the sequence CCCCGCCGCT, the switch fluorescence ratio was 1.64.

Regarding AAAGTCTTTG, the switch fluorescence ratio was found to be 1.04.

In the case of TCGCATATA, the switch fluorescence ratio amounted to 1.19.

As to CTTGTGGGA, the switch fluorescence ratio amounted to 0.978.

In the case of AAGAAGGGTG, the switch fluorescence ratio is 0.972.

Take AATGTCCAAT: the switch fluorescence ratio was determined as 1.02.

CTCGCATCGG: the switch fluorescence ratio amounted to 1.21.

Turning to TCCTTTAGAA, the switch fluorescence ratio is 1.01.

As to CGAACATTAG, the switch fluorescence ratio turned out to be 1.03.

For AGTTTTTCAG, the switch fluorescence ratio stood at 1.01.

With TTTAAGTATG, the switch fluorescence ratio turned out to be 1.03.

On to CTATGGTACC, for which the switch fluorescence ratio turned out to be 0.992.

For CTATACTCTT, the switch fluorescence ratio is 1.05.

Take CACCTGCGGC: the switch fluorescence ratio stood at 1.04.

As for AGCACCTGCG, the switch fluorescence ratio was 0.96.

With TGGGGACGGC, the switch fluorescence ratio was found to be 0.976.

Turning to TCTGAGTAAG, the switch fluorescence ratio worked out at 0.973.

Regarding ATCTGAGGCA, the switch fluorescence ratio worked out at 1.06.

With ATATGATTGC, the switch fluorescence ratio worked out at 1.04.

TAGTGGTAAA: the switch fluorescence ratio turned out to be 0.98.

Take GGGTTTGACA: the switch fluorescence ratio is 0.972.

Take GGATCACATT: the switch fluorescence ratio worked out at 0.973.

Turning to TCGGGTCT, the switch fluorescence ratio was 0.983.

On to AAGATTAGGC, for which the switch fluorescence ratio stood at 0.976.

For ATATAAGTT, the switch fluorescence ratio was found to be 1.01.

For the sequence TAGTCGTTT, the switch fluorescence ratio was determined as 0.945.

With GAAAGTACTC, the switch fluorescence ratio is 1.22.

For TGGGAGGCTC, the switch fluorescence ratio worked out at 0.993.

In the case of CGCGGCCTAA, the switch fluorescence ratio was 1.06.

In the case of GGTTATTATT, the switch fluorescence ratio is 0.962.

Consider TTTCTTTTTC, for which the switch fluorescence ratio was 0.986.

Consider AGAGTAGACA, for which the switch fluorescence ratio worked out at 1.05.

Consider TCTCTTCTTG, for which the switch fluorescence ratio is 1.02.

With TGGTTCCGCT, the switch fluorescence ratio was 1.13.

Consider CGGCAGGGCA, for which the switch fluorescence ratio worked out at 0.96.

For the sequence CTCGAGCGGG, the switch fluorescence ratio was 1.02.

Turning to GGGCATCCAA, the switch fluorescence ratio came out at 0.977.

On to TCTCATGGGG, for which the switch fluorescence ratio is 1.01.

TCTCCAAGAT: the switch fluorescence ratio stood at 2.5.

With TCATCATTAC, the switch fluorescence ratio came to 1.26.

Regarding CTATGTTCCA, the switch fluorescence ratio was 1.02.

Take AGACGTGCGG: the switch fluorescence ratio was determined as 0.972.

For CGAGATAGTG, the switch fluorescence ratio turned out to be 0.935.

In the case of TTTGCCGATC, the switch fluorescence ratio is 0.986.

On to TTGTTACCTA, for which the switch fluorescence ratio was determined as 1.06.

Take AGATCGGGGT: the switch fluorescence ratio was determined as 0.95.

Turning to ACAAAGTAGC, the switch fluorescence ratio came to 0.989.

Take ATCTGTCAGA: the switch fluorescence ratio is 0.967.

ATCCGTTGG: the switch fluorescence ratio was found to be 0.994.

As to TCAGCGTACT, the switch fluorescence ratio amounted to 1.25.

Take GTAAAATTAG: the switch fluorescence ratio is 0.989.

With TATATTT, the switch fluorescence ratio is 1.04.

With AAAGACTTGC, the switch fluorescence ratio worked out at 1.07.

Consider TAAGGTTTC, for which the switch fluorescence ratio was 0.975.

CCTATGTGGA: the switch fluorescence ratio came out at 1.02.
